Measurements reported in ChEMBL document CHEMBL1240533, “Selectivity and potency of cyclin-dependent kinase inhibitors” (AAPS J, 2006).

Biological target: Cyclin-dependent kinase 1 (Homo sapiens, UniProt P06493)
Sequence (P06493 whole entry): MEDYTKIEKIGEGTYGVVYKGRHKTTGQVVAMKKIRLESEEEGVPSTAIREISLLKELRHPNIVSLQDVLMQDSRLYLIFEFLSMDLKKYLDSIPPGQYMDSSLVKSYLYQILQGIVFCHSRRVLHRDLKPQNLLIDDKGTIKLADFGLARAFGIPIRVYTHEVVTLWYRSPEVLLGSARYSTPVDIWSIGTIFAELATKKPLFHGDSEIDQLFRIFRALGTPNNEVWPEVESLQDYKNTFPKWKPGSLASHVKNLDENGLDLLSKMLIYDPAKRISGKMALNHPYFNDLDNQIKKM

Row | IC50 [nM] | Structure (SMILES)
1 | 1600 | c1ccc2c(c1)Cc1c-2n[nH]c1-c1ccncc1
2 | 1800 | O=C(Nc1ccccn1)Nc1cccc2c1[C@H]1CCCN1C2=O
3 | 104 | Nc1nc2ccc(C(=O)c3c(F)cccc3Cl)cc2n1Cc1c(F)cccc1F
4 | 5 | Cc1nc2ccccn2c1-c1ccnc(Nc2ccc(OCC(O)CN(C)C)cc2)n1 (stereo unspecified)
5 | 5000 | CC1(C)CC2(C)Nc3cc(-c4ccc5c(c4)NC4(C)CC(C)(C)NC(=S)N54)ccc3N2C(=S)N1 (stereo unspecified)
6 | 279 | O=C(Cc1ccc2ccccc2c1)Nc1cc(C2CC2)n[nH]1
7 | 40 | O=C1C(c2c(O)[nH]c3ccc(S(=O)(=O)O)cc23)=Nc2ccccc21
8 | 6 | Nc1nc(N)c(N=O)c(=O)[nH]1
9 | 55 | O=C(Nc1cc(C2CCC2)c[nH]1)Nc1cccc2ccncc12
10 | 2800 | NC(=O)c1ccc2c(c1)C(=NNc1ccc(S(=O)(=O)NCCOCCO)cc1)C(=O)N2
11 | 15 | CN(C)CCNS(=O)(=O)c1ccc(Nc2cccc(-c3cnc4ccccn34)c2)cc1
